Results reported in the supplement of paper PMC3724861.
This is one part of the list.

The sequences below were run on T1, Caupolican (Caup) homeodomain DNA-binding domain (assay: PBM E-score (8-mer, recovered from the published 9-mer minima) (E-score (dimensionless, -0.5 to 0.5)); Drosophila protein; higher = stronger relative binding preference, active = 0.31 or more).
T1 sequence: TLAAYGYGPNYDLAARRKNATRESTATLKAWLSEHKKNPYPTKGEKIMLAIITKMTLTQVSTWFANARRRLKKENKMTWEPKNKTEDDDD
Outline: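 Caup's homeodomain DNA-binding domain (residues 214-303) was made by in vitro transcription and translation and applied at 100 nM to custom-designed protein binding microarrays. Each value is an enrichment score that gives relative binding preference for a short DNA word, with higher meaning stronger. The 8-mer values were recovered from published 9-mer scores, each of which was the minimum of its two constituent 8-mer scores. A cutoff of 0.31 marks candidate sites.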

| Sequence | PBM E-score |
| --- | --- |
| AAAGAAAC | inactive: 0.0567 |
| GATCCAGC | inactive: -0.116 |
| AACCAAAG | inactive: 0.122 |
| CCACGGCC | inactive: -0.294 |
| CTCAAATC | inactive: -0.0105 |
| AAGAGACA | inactive: 0.124 |
| ACCGCCCA | inactive: -0.202 |
| AACAGGGC | inactive: 0.0462 |
| GCGTCTCA | inactive: -0.157 |
| GCGAACAA | inactive: 0.212 |
| CCAGGGGG | inactive: -0.346 |
| CCGGGGTA | inactive: -0.115 |
| ACTGGCCC | inactive: -0.195 |
| AATGTGGG | inactive: 0.0397 |
| ACTGTGAG | inactive: -0.0353 |
| GCTTACCA | inactive: 0.0275 |
| CTATCACA | inactive: 0.14 |
| TGATATCA | ≥ 0.162 |
| ATAGGATC | inactive: 0.0862 |
| ATTATGCG | inactive: 0.104 |
| TTACCGAA | inactive: 0.0704 |
| ACCTACTA | inactive: 0.0891 |
| CAACATAG | inactive: 0.177 |
| CTTTTTTA | inactive: -0.063 |
| CAAACCTA | inactive: -0.00936 |

| Sequence | PBM E-score |
| --- | --- |
| AGCATTCC | inactive: -0.101 |
| GGACGTGA | inactive: -0.0239 |
| ACCTCTGC | inactive: -0.124 |
| AGTCTGTG | inactive: 0.0461 |
| AGTACCAG | inactive: 0.0977 |
| AATGCTTC | inactive: 0.0255 |
| GCGATGTA | inactive: 0.268 |
| AATCAGTA | inactive: 0.2 |
| GTTAGAAC | inactive: 0.059 |
| AGCTCGGG | inactive: -0.181 |
| ATTACGTA | inactive: 0.173 |
| GAGTAAAC | inactive: 0.0324 |
| GTGGTTCA | inactive: 0.106 |
| ACCTTGAT | inactive: -0.0301 |
| TGATGTAA | active: 0.36 |
| AATGAGAC | inactive: -0.0274 |
| TCAACCAA | inactive: 0.0466 |
| AAGCTGCG | inactive: -0.143 |
| CGGGCATA | inactive: -0.0617 |
| CGTTTGGA | inactive: -0.054 |
| CTTTGGCC | inactive: -0.118 |
| TAACCGGA | inactive: -0.014 |
| CACTACAC | inactive: 0.206 |
| AACAAATA | inactive: 0.287 |
| AAGTTGTG | inactive: 0.106 |

| Sequence | PBM E-score |
| --- | --- |
| CACACGAC | inactive: 0.0592 |
| CGGCATAC | inactive: -0.0519 |
| AGGCTTAC | inactive: -0.043 |
| AAAAACGT | inactive: 0.0448 |
| GCTAGGTA | inactive: -0.00982 |
| CCGGACTA | inactive: -0.0979 |
| TCCCACGA | ≥ -0.0756 |
| AGATGAAT | inactive: 0.0945 |
| TAAACGCA | inactive: 0.034 |
| AGGGTAAG | inactive: -0.0682 |
| TCAATTAA | inactive: 0.083 |
| ACTCTTGA | inactive: -0.024 |
| GGGCATAA | inactive: -0.0673 |
| GAACGTAC | inactive: 0.0845 |
| CTCTTTAA | inactive: -0.0278 |
| ATAACTCA | ≥ 0.0974 |
| ACGCATCG | inactive: 0.00845 |
| ACCACATA | inactive: 0.134 |
| CATACGTA | inactive: 0.196 |
| GTGATCTA | inactive: 0.0496 |
| GCTCCCCC | inactive: -0.358 |
| CCAAAAAA | inactive: 0.0343 |
| AGGCTGAT | ≥ 0.0181 |
| GGAGCGAC | inactive: -0.0697 |
| GAACTCTA | inactive: 0.0471 |

| Sequence | PBM E-score |
| --- | --- |
| CGTTGGGC | inactive: -0.138 |
| AACGCTGT | inactive: 0.0847 |
| AACGTCAG | inactive: 0.0498 |
| CATCGTTC | inactive: 0.00229 |
| AGCCGCAC | inactive: -0.17 |
| ATTGAACC | inactive: 0.00538 |
| CAAATGCG | inactive: 0.0193 |
| ATTAGGGC | inactive: -0.065 |
| AATATCCC | inactive: 0.0141 |
| GAAGGAAA | inactive: -0.0842 |
| TCCTACCA | inactive: -0.0866 |
| ATTCCTTG | inactive: 0.058 |
| GCAGTTAA | inactive: -0.0286 |
| GGGTTCGA | inactive: -0.0924 |
| ACATCTAC | inactive: 0.296 |
| GGGTCAAC | inactive: -0.0293 |
| TGAGGGCA | inactive: -0.108 |
| ATTAGATA | ≥ 0.212 |
| AGCCTCCA | inactive: -0.239 |
| CAACCAAC | inactive: 0.0468 |
| TTCGGAAA | inactive: -0.0918 |
| CCAGGCAC | inactive: -0.0562 |
| CCCTCTCG | inactive: -0.245 |
| CTCATTGC | inactive: 0.0423 |
| GAATTTCA | inactive: -0.00942 |

| Sequence | PBM E-score |
| --- | --- |
| GGTACAAC | active: 0.32 |
| CTCTGCGC | inactive: -0.141 |
| AGTATTGC | inactive: 0.12 |
| AGGACGGG | inactive: -0.116 |
| TAGCGTAA | inactive: 0.0187 |
| CGCCCTTC | inactive: -0.183 |
| CCTGACGA | inactive: -0.0143 |
| CTAGCCTA | inactive: -0.043 |
| GCTAAAAC | inactive: -9e-05 |
| CGCCTCAC | inactive: -0.0822 |
| CCCGCTAG | inactive: -0.241 |
| CAGAGTTC | inactive: -0.073 |
| GAGATAGC | inactive: -0.0575 |
| AGTGCCGA | inactive: -0.154 |
| GGTGTCAA | inactive: 0.197 |
| GAACTTCA | inactive: -0.0896 |
| CTAATTAA | inactive: 0.155 |
| GGACGGCC | inactive: -0.274 |
| CACCGGAG | inactive: -0.163 |
| AGGGGAGC | inactive: -0.27 |
| ACAAACCC | inactive: 0.122 |
| AACAATAT | ≥ 0.296 |
| CGGTATAG | inactive: 0.00586 |
| CATCCTTC | inactive: -0.0147 |
| TACGCCCA | inactive: -0.0212 |

| Sequence | PBM E-score |
| --- | --- |
| AAACGGTG | inactive: 0.0578 |
| AAACAATT | inactive: 0.176 |
| CTTAATGC | inactive: -0.00154 |
| CCGGATTC | inactive: -0.0277 |
| CTCCTACA | inactive: 0.107 |
| CCCCTCAG | inactive: -0.155 |
| AACCTGGA | inactive: 0.0374 |
| CATACAAC | inactive: 0.27 |
| TGCTACAA | inactive: 0.251 |
| AGCTTCCC | inactive: -0.188 |
| AACCACTT | inactive: 0.118 |
| TGTAGAAA | inactive: 0.249 |
| TAGGTAAA | inactive: 0.0307 |
| CGGGTCGC | inactive: -0.249 |
| TCTCATAA | inactive: 0.0556 |
| CAATTTAG | inactive: 0.0674 |
| AAGTCTAA | inactive: 0.0476 |
| ACATCTCC | inactive: 0.197 |
| ATTCGCGG | inactive: -0.14 |
| CCTTCGCC | inactive: -0.162 |
| ATGCTCAC | inactive: 0.0542 |
| ATTCCAAG | inactive: 0.0121 |
| GGATGCTA | inactive: -0.0509 |
| ATGTCCCA | inactive: 0.0983 |
| AGACACTA | inactive: 0.0692 |

| Sequence | PBM E-score |
| --- | --- |
| GATAGGGA | inactive: -0.109 |
| ACCCAAAT | ≥ 0.0832 |
| CCGCTACC | inactive: -0.0854 |
| AATCATAA | inactive: 0.163 |
| ATGTGGTC | inactive: 0.0985 |
| TAAGTGCA | inactive: 0.0623 |
| ACTCCTGA | inactive: -0.0693 |
| AACCACGT | inactive: 0.143 |
| GAGAAAGC | inactive: -0.0804 |
| CCAGTTGA | inactive: -0.0244 |
| GATAGATC | inactive: 0.0307 |
| ACCCCGCT | inactive: -0.214 |
| CACTCGGA | inactive: -0.02 |
| TACCTGCA | inactive: 0.0348 |
| CATACTAC | inactive: 0.147 |
| GGTAACAA | active: 0.316 |
| GACGCGTA | inactive: 0.0959 |
| GCTGATTA | inactive: 0.134 |
| AGAAACGG | inactive: -0.0727 |
| AGTACACG | active: 0.376 |
| CGGGGATC | inactive: -0.203 |
| CTGTTCCC | inactive: -0.0187 |
| AAAATTCT | inactive: 0.111 |
| GAAATCAC | inactive: 0.121 |
| CAGCTCGA | inactive: -0.14 |

| Sequence | PBM E-score |
| --- | --- |
| AAGTTGTC | inactive: 0.28 |
| AGTCGCCG | inactive: -0.138 |
| CAGAGTAG | inactive: 0.0239 |
| ATGACATG | active: 0.422 |
| ACAGGCGG | inactive: -0.0126 |
| AGGTACGG | inactive: -0.048 |
| ACGGCTGG | inactive: -0.201 |
| CGCTGATA | inactive: 0.00665 |
| GCTTGGCA | inactive: -0.0609 |
| TAAATATA | inactive: 0.187 |
| ACTGGCCT | inactive: -0.14 |
| AAAGTGAC | inactive: 0.0122 |
| CCTAGTCA | inactive: 0.0804 |
| CTTCGAGA | inactive: -0.102 |
| GTCAAAAA | inactive: 0.0692 |
| GACAGTCC | inactive: -0.0537 |
| ACGACAAG | active: ≥ 0.317 |
| ATGCCACG | inactive: -0.079 |
| CAGTATCA | inactive: 0.127 |
| GTCAGCTA | inactive: 0.0404 |
| GTATGGCA | inactive: -0.0182 |
| ATATTGTG | inactive: 0.139 |
| ATTAACAG | inactive: 0.146 |
| CACACAAA | inactive: 0.0943 |
| GTGCGCGA | inactive: -0.12 |

| Sequence | PBM E-score |
| --- | --- |
| CAGTTCAC | inactive: -0.00615 |
| AGAGGCAC | inactive: -0.214 |
| GCAGTGCA | inactive: -0.0579 |
| ACCACGGA | inactive: -0.0601 |
| TTAGAAAA | inactive: 0.0882 |
| ACTTTTCG | inactive: 0.0288 |
| CTGAGCTA | inactive: -0.0782 |
| TAACTGAA | inactive: 0.00442 |
| CACTTGTA | active: 0.318 |
| CCCTAACC | inactive: -0.195 |
| ACTGCAAA | inactive: -0.00032 |
| TATGCTGA | inactive: 0.0607 |
| CCGTGGAA | inactive: -0.12 |
| CCTGGCAG | inactive: -0.129 |
| CGAGCCCG | inactive: -0.122 |
| ACTTATCG | inactive: 0.0884 |
| CCGGTTCC | inactive: -0.207 |
| TGCGAGAA | inactive: -0.134 |
| CCTACTAA | inactive: -0.0684 |
| ATACCAAG | inactive: 0.0808 |
| ACCACTCT | inactive: -0.0256 |
| ACGTCGAC | inactive: 0.0424 |
| CAACATTA | inactive: 0.305 |
| GCATAAGC | inactive: -0.0256 |
